The other results are listed elsewhere or left out. The energies were worked out here from pooled read counts, against the library average; single values are noisy.

In the experiment the target is T1, Pho4 (S. cerevisiae) (UniProt P07270).
T1 sequence: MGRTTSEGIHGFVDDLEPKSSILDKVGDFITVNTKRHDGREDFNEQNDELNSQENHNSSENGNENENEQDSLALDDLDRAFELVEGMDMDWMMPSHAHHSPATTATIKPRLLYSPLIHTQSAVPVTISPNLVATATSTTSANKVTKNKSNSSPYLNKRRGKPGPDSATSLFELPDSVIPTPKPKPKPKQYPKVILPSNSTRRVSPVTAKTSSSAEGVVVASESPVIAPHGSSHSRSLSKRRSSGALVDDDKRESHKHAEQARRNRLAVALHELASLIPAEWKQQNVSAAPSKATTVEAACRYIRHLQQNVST
Briefly: relative binding free energy (BET-seq); higher = weaker binding. To be noted: reference: library average.
Consider TGGAGCACGTGGTCCG, for which the “relative binding free energy” value was -0.05 kcal/mol. Under GATATCACGTGTAGGT stands 0.23 kcal/mol; under AGTAACACGTGAGTGT, 0.22 kcal/mol; under TAATGCACGTGCGTGT, -0.03 kcal/mol. Consider TTGGTCACGTGGTCAC, for which the “relative binding free energy” value was found to be 0.04 kcal/mol. TTTCTCACGTGGAGGT: the “relative binding free energy” value was determined as 0.16 kcal/mol. GTTATCACGTGTCTTG: the “relative binding free energy” value stood at 0.24 kcal/mol. Take TGATTCACGTGAGTTG: the “relative binding free energy” value was 0.41 kcal/mol. Under CGTGGCACGTGGTGCA stands -0.21 kcal/mol; under TAGTCCACGTGGTGCG, -0.07 kcal/mol; under GTGGGCACGTGCTGCG, -0.16 kcal/mol. Under GGTCACACGTGGGAGG stands -0.05 kcal/mol; under GAATGCACGTGATGGT, 0.2 kcal/mol; under TCGTACACGTGCAGGG, 0.24 kcal/mol. Take GTAGTCACGTGTTTAA: the “relative binding free energy” value amounted to 0.27 kcal/mol. Turning to TTGATCACGTGTGAAG, the “relative binding free energy” value was 0.25 kcal/mol.

With GTCCGCACGTGTATGG, the “relative binding free energy” value was 0.07 kcal/mol.

Consider TTTTGCACGTGTTTAC, for which the “relative binding free energy” value stood at 0.03 kcal/mol. Consider CAGTTCACGTGTCTGG, for which the “relative binding free energy” value came out at 0.28 kcal/mol. The figure for GAGTGCACGTGTTAAG is 0.1 kcal/mol.

Consider TTCGGCACGTGTATCG, for which the “relative binding free energy” value was -0.07 kcal/mol. In the case of GCCGGCACGTGAGGTG, the “relative binding free energy” value was -0.07 kcal/mol. The figure for ACTTGCACGTGGTGCG is -0.25 kcal/mol; for TTGGGCACGTGTTTGC it is -0.06 kcal/mol; for GGTAGCACGTGTGACT it is 0.03 kcal/mol. Under TGGTTCACGTGGAAAT stands 0.4 kcal/mol. Consider AGGTTCACGTGAGGCT, for which the “relative binding free energy” value is 0.39 kcal/mol. For the sequence TGTAACACGTGTGGGT, the “relative binding free energy” value amounted to 0.12 kcal/mol.

As to TTAATCACGTGTTGGT, the “relative binding free energy” value was determined as 0.12 kcal/mol.

As for TGTTTCACGTGTGTAT, the “relative binding free energy” value worked out at 0.3 kcal/mol. Turning to CGAGTCACGTGTTTAG, the “relative binding free energy” value stood at 0.1 kcal/mol. With GGGTTCACGTGAGTAA, the “relative binding free energy” value amounted to 0.44 kcal/mol.

As for GATGTCACGTGGCGGT, the “relative binding free energy” value was determined as 0.07 kcal/mol.

For the sequence CAATTCACGTGGGTTT, the “relative binding free energy” value stood at 0.2 kcal/mol.

TGTCACACGTGATTGG: the “relative binding free energy” value is 0.2 kcal/mol. As for TAGAGCACGTGAATAT, the “relative binding free energy” value turned out to be 0.16 kcal/mol. With TGAGGCACGTGCTCTT, the “relative binding free energy” value was 0.02 kcal/mol.

Turning to GGAGTCACGTGTAATT, the “relative binding free energy” value is 0.12 kcal/mol. Take GGTGTCACGTGCAGTA: the “relative binding free energy” value is -0.05 kcal/mol. For TGCGTCACGTGGAGAT, the “relative binding free energy” value came to 0.15 kcal/mol.

Consider AGAGGCACGTGAGTGA, for which the “relative binding free energy” value amounted to 0.06 kcal/mol. As to AGAAACACGTGTGGGT, the “relative binding free energy” value came out at 0.07 kcal/mol. With TGCATCACGTGATATT, the “relative binding free energy” value was 0.27 kcal/mol. With ATTGGCACGTGGTGGG, the “relative binding free energy” value was -0.11 kcal/mol. Under TTGAACACGTGTCAGT stands 0.16 kcal/mol; under GGAAGCACGTGGTGCA, -0.24 kcal/mol; under GGATTCACGTGGAGTA, 0.18 kcal/mol.

Turning to AGATGCACGTGTAGGT, the “relative binding free energy” value was -0.05 kcal/mol. The figure for CGTTGCACGTGCAGTT is 0 kcal/mol; for GTTATCACGTGGAGCG it is 0.25 kcal/mol; for CATTGCACGTGGGGTG it is -0.15 kcal/mol.

Regarding TTATGCACGTGATGAT, the “relative binding free energy” value turned out to be 0.15 kcal/mol. The figure for TGTTCCACGTGATTAG is 0.37 kcal/mol; for CAAATCACGTGTTTGT it is 0.07 kcal/mol; for GGAGTCACGTGATTGC it is 0.3 kcal/mol.

On to CGGGACACGTGAGAGG, for which the “relative binding free energy” value came out at 0.31 kcal/mol. TGTTGCACGTGGTTGT: the “relative binding free energy” value is -0.02 kcal/mol.

TTAGCCACGTGTAGTG: the “relative binding free energy” value is -0.11 kcal/mol. Under TCAGGCACGTGTAGGC stands 0.07 kcal/mol; under TTGGTCACGTGGCGCT, 0 kcal/mol. The figure for GGGCACACGTGGCAGG is 0.05 kcal/mol; for TTTAACACGTGTCATG it is 0.09 kcal/mol; for CCGTGCACGTGGTGAT it is 0.02 kcal/mol. Regarding GTTTGCACGTGCAGTT, the “relative binding free energy” value was -0.05 kcal/mol. GCGGTCACGTGAGTGT: the “relative binding free energy” value amounted to 0.29 kcal/mol. Take ATAAGCACGTGGGCTT: the “relative binding free energy” value was -0.2 kcal/mol.

TAAGACACGTGCGTGT: the “relative binding free energy” value is -0.08 kcal/mol. Regarding CCTTGCACGTGTGAGT, the “relative binding free energy” value came out at 0.13 kcal/mol. GAGGGCACGTGGTGTA: the “relative binding free energy” value was -0.1 kcal/mol. The figure for GTAGTCACGTGCGATG is 0.13 kcal/mol.

As for CGTTGCACGTGGCTGT, the “relative binding free energy” value was -0.01 kcal/mol. Under GGTCTCACGTGATGTA stands 0.46 kcal/mol; under GGAATCACGTGTAGGT, 0.25 kcal/mol; under TTAGACACGTGCGGTG, 0.02 kcal/mol.

On to GGAATCACGTGAATTG, for which the “relative binding free energy” value is 0.23 kcal/mol. As to TGAAGCACGTGATGCG, the “relative binding free energy” value was 0.04 kcal/mol. In the case of GTGTGCACGTGAATTC, the “relative binding free energy” value was determined as 0.29 kcal/mol. CTCATCACGTGAGGGG: the “relative binding free energy” value was found to be 0.37 kcal/mol. In the case of TTTTGCACGTGCATGG, the “relative binding free energy” value turned out to be 0.1 kcal/mol. For the sequence ATATTCACGTGGGTGA, the “relative binding free energy” value is 0.1 kcal/mol. As to ACTATCACGTGGTGGA, the “relative binding free energy” value was found to be 0.26 kcal/mol.

Consider TTATGCACGTGCGTTG, for which the “relative binding free energy” value was -0.11 kcal/mol. Consider ACATTCACGTGTAGGT, for which the “relative binding free energy” value was 0.19 kcal/mol. As for TGTCTCACGTGTAATG, the “relative binding free energy” value is 0.24 kcal/mol. Regarding GGAGACACGTGAGGAG, the “relative binding free energy” value stood at 0.18 kcal/mol. AATAGCACGTGATGTT: the “relative binding free energy” value was found to be 0.03 kcal/mol. On to TTATTCACGTGTAATT, for which the “relative binding free energy” value was determined as 0.21 kcal/mol. As for TCTATCACGTGTTATT, the “relative binding free energy” value was determined as 0.09 kcal/mol. Take GTGTTCACGTGTTGTG: the “relative binding free energy” value came out at 0.28 kcal/mol. For the sequence GTGGTCACGTGGACCG, the “relative binding free energy” value is 0.19 kcal/mol.

Regarding CTGTACACGTGGGTAG, the “relative binding free energy” value is -0.16 kcal/mol.

On to CGGTGCACGTGAAGGG, for which the “relative binding free energy” value was 0.2 kcal/mol. For CTTTGCACGTGTAGAT, the “relative binding free energy” value is 0.28 kcal/mol.

TTTACCACGTGGGGCG: the “relative binding free energy” value was -0.17 kcal/mol. For the sequence CTTGGCACGTGAACGT, the “relative binding free energy” value stood at 0.15 kcal/mol. Under GGGGTCACGTGCGGTA stands 0.08 kcal/mol; under TAGAGCACGTGTGTGT, -0.2 kcal/mol; under AGTGCCACGTGTTTGC, -0.06 kcal/mol. The figure for AATGTCACGTGGGTGA is -0.01 kcal/mol; for TGGGGCACGTGACTAG it is -0.13 kcal/mol; for TTAATCACGTGGGGTG it is 0 kcal/mol. As to TAGTTCACGTGACTGA, the “relative binding free energy” value amounted to 0.41 kcal/mol. On to GTATGCACGTGGTGTG, for which the “relative binding free energy” value was -0.04 kcal/mol.

In the case of TAAGGCACGTGGAGAG, the “relative binding free energy” value was -0.09 kcal/mol. Turning to ATGGGCACGTGCTGGT, the “relative binding free energy” value was -0.06 kcal/mol.

Regarding CGAGGCACGTGTTGGG, the “relative binding free energy” value is -0.07 kcal/mol. Take GGTATCACGTGGTATC: the “relative binding free energy” value came to 0.06 kcal/mol.

Turning to TAGGTCACGTGTTGTG, the “relative binding free energy” value worked out at 0.17 kcal/mol. As to CGGTCCACGTGGTGGT, the “relative binding free energy” value is -0.09 kcal/mol. Take TGTAGCACGTGTTTCT: the “relative binding free energy” value is -0.13 kcal/mol. Consider TGAGTCACGTGCGGGA, for which the “relative binding free energy” value came to 0.02 kcal/mol. As to TCTTTCACGTGCTGTT, the “relative binding free energy” value was found to be 0.25 kcal/mol. Take CGGTGCACGTGTGCGT: the “relative binding free energy” value was -0.13 kcal/mol. The figure for CTGCGCACGTGATGGA is 0.14 kcal/mol; for GGTTTCACGTGGCAGT it is 0.15 kcal/mol; for TTTGGCACGTGTACGT it is -0.18 kcal/mol. Consider TGATCCACGTGTGTAT, for which the “relative binding free energy” value was determined as 0.1 kcal/mol.

As to AGTTTCACGTGTTTAG, the “relative binding free energy” value was determined as 0.22 kcal/mol.

As to CAATTCACGTGGGTTC, the “relative binding free energy” value was 0.31 kcal/mol. Turning to TTATGCACGTGTTTTG, the “relative binding free energy” value was -0.06 kcal/mol. The figure for TTTGACACGTGACGTG is -0.02 kcal/mol.

With GATGTCACGTGAAGGG, the “relative binding free energy” value was 0.28 kcal/mol. Under TTTGACACGTGATGTA stands 0.03 kcal/mol; under GGTAACACGTGGAAAG, 0.07 kcal/mol; under TGATGCACGTGGTAAT, 0 kcal/mol. Under CTGGTCACGTGGTGAA stands 0.13 kcal/mol; under GTAAACACGTGGGTCT, 0 kcal/mol.

On to AAGTGCACGTGATGGT, for which the “relative binding free energy” value came out at 0.09 kcal/mol. Consider TCAAGCACGTGATTTG, for which the “relative binding free energy” value turned out to be 0.19 kcal/mol. For TTGGTCACGTGGAGAT, the “relative binding free energy” value came out at 0.24 kcal/mol. Consider CGTATCACGTGTCGAG, for which the “relative binding free energy” value is 0.25 kcal/mol. Turning to GGTGTCACGTGAGTTC, the “relative binding free energy” value is 0.29 kcal/mol. Turning to TTTTGCACGTGAGGTT, the “relative binding free energy” value amounted to 0.35 kcal/mol. The figure for TAAGTCACGTGGTGCT is 0.07 kcal/mol; for CGGTGCACGTGTAGTT it is -0.05 kcal/mol.

For the sequence ATTATCACGTGAATGT, the “relative binding free energy” value was 0.18 kcal/mol.

Regarding AAGGTCACGTGGTAGA, the “relative binding free energy” value was found to be 0.11 kcal/mol. Turning to GTGGGCACGTGCACGT, the “relative binding free energy” value was 0.02 kcal/mol. Take CAGTGCACGTGTTTGG: the “relative binding free energy” value came to 0.05 kcal/mol. TATGTCACGTGACATT: the “relative binding free energy” value came out at 0.31 kcal/mol.

Consider GTTATCACGTGTGACG, for which the “relative binding free energy” value amounted to 0.26 kcal/mol. Take TGGGGCACGTGCGCGG: the “relative binding free energy” value is -0.29 kcal/mol.

As for AGTATCACGTGTGGGA, the “relative binding free energy” value stood at 0.12 kcal/mol. In the case of GTCGGCACGTGTAGCG, the “relative binding free energy” value is -0.03 kcal/mol. As for GCTGACACGTGATTGG, the “relative binding free energy” value worked out at 0.31 kcal/mol. For GTAATCACGTGGTTAG, the “relative binding free energy” value came to 0.1 kcal/mol.

These data come from the BET-seq Pho4 binding data (Le et al. 2018).
